# Screen size: about 150,000 compounds; about 540 (0.36%) showed an effect of 50% or more. This is one part of the list.
# Tested on: Plasmodium falciparum
# Test: Primary screen in NF54 nanoGlo assay, in single point, at 2uM, 72h; a lower Z score goes with more inhibition
# Format: functional, Erythrocyte
# Conditions: timepoint 72 hour
SMILES,% Inhibition [%],Z score
CCCn1nccc1C(=O)NCc1nc(C2CC2)no1,3,-0.72
Cc1cnc(C(=O)N2c3ccccc3C[C@H]2c2nc(C3CC3)no2)cn1,-5,0.63
O=C(Nc1ccc(Cl)c(Cl)c1)C1[C@@H]2C=C[C@]3(O2)C(C(=O)NC2CCCCC2)N(CCN2CCCCC2)C(=O)[C@H]13 (stereo not given in full),-3,0.42
Cc1cc(C)nc(O[C@H]2CCN(C(=O)c3sc(C)nc3C)C2)n1,-17,2.62
O=C(O)[C@H](CO)Nc1nc(-c2ccccc2)nc2ccccc12,-16,1.44
Cc1cccc2c(C(=O)O)c3c(nc12)CCCCC3,-4,0.51
NC(=O)C1CCN(Cn2nc(C3CC3)cc(C(F)(F)F)c2=O)CC1,1,-0.13
COc1cc(Br)cc(C#N)c1O,41,-5.92
O=C1C[C@@H](c2nc(-c3sc4ccccc4c3Cl)no2)CCN1,-1,0.14
CC(C)Cc1ccc(S(=O)(=O)N2CCC[C@H]2c2nncn2Cc2ccncc2)cc1,4,-0.83
O=C(c1nc(C2CC2)nn1-c1ccccc1C(F)(F)F)N1CCOCC1,-8,1.52
COc1cc(NCc2ccc(C)c(F)c2)ncn1,-6,0.93
NC(=O)Cn1ccnc1[C@H]1CCCN(C(=O)c2ccc(-n3cccn3)cc2)C1,5,-0.88
CCOc1ccc(S(=O)(=O)N2CCC[C@H](Oc3ccncc3Cl)C2)cc1F,3,-0.37
CC[C@@H](C(=O)Nc1cc(C)nn1-c1nc2c(c(=O)[nH]1)CCC2)c1ccccc1,17,-3.37
CCN(CC)S(=O)(=O)c1ccc(C(=O)N(CC(N)=O)C(C)(C)C)cc1,-15,1.72
O=C(NCc1ccc(-c2nc3ccccc3o2)cc1)c1ccccc1Br,-12,1.3
CN(Cc1ccccc1)[C@@H]1COC2(C1)CN(C(=O)Cc1cccs1)C2,-6,0.93
O=C(O)/C(=C\c1cn(-c2ccccc2)nc1-c1ccccc1)NC(=O)c1ccccc1,-5,0.61
O=C(C1CCN(c2cc3c(nn2)CCC3)CC1)N1CCC(F)(F)CC1,13,-1.72
Cn1cnc2c1CCN(CCOc1ccccc1C#N)C2,-7,0.94
COc1ccc(C)nc1-c1ccc(N(C)C)nc1,1,-0.1

SMILES,% Inhibition [%],Z score
CC1=NN(c2nc(-c3ccccc3)cs2)C(=O)[C@H]1C,3,-0.55
C[C@H](NC(=O)c1cc2c(s1)CCCCC2)c1cn[nH]c1,-15,1.45
CC(C)Cn1c(C[C@H]2CCN(C(=O)Nc3ccccc3)C2)nc2cccnc21,-10,0.98
CCN(C1CC1)S(=O)(=O)c1c(C)n[nH]c1C,4,-0.6
Cc1ncc(CN2CC(O)(c3ccccc3)C2)s1,-3,0.4
Cc1nc(CN(C)CCc2nccs2)cs1,-8,1.03
CN1CCCc2cc(C(=O)N3CCC[C@H](Nc4ccc5c(c4)OCCO5)C3)ccc21,-6,0.75
CC(C)Cc1cc(C(=O)NCC[C@H]2CCCN(C)C2)on1,13,-1.62
CCN(C)C(=O)N[C@H]1CCCCC[C@H]1NC(=O)N(C)CC,-9,1.44
Cc1nn(-c2ccc(F)cc2)c(C)c1[C@@H]1CC(O)=Nc2c1c(C)nn2-c1ncnc2[nH]cnc12,-18,2.24
CC(C)c1nc(CC(=O)N[C@@H](C)c2ccc3c(c2)CC(=O)N3)cs1,-5,0.88
COc1ccc(C(=O)Nc2ccc(-n3nc(OCC(C)C)nc3-c3ccc4c(c3)OCO4)cc2)cc1,-17,1.8
CCc1nccc(CN2CCC[C@H](CS(C)(=O)=O)C2)n1,-20,2.11
C[C@@H](CNC(=O)NC1CCCCC1)Cn1cc(Cl)cn1,4,-0.53
CCOCC(=O)Nc1cncc(Br)c1C,-4,0.86
O[C@H](c1ccccc1)c1nncn1Cc1ccc(F)c(F)c1,-13,1.51
Cc1ccc(-c2nnc(CN3CCN(c4ccccc4Cl)C(=O)C3)o2)n1C,-4,0.43
COC(=O)Cc1cnc(NC(=O)CNCc2ccncc2)s1,-9,1.4
O=S(=O)(c1ccc(N2CCC(CO)CC2)nc1)N1CCCCC1,6,-0.65
COc1ccc(-c2nnc(NC(=O)[C@H](C)c3ccccc3)s2)cc1,5,-0.72
COc1ccc(-n2ccc3c(cnc4ccn(-n5cnnc5)c(=O)c43)c2=O)cc1,11,-1.61
O=C(c1cc(CC2(NC3CCC(CO)CC3)COC2)no1)N1CCCCC1 (stereo not given),1,-0.08

SMILES,% Inhibition [%],Z score
COc1cccc(N2C(=O)N(c3ccc(Cl)c(Cl)c3)C3CS(=O)(=O)CC32)c1 (stereo not given),3,-0.37
CCc1c(C)noc1NC(=O)CCN1CCCCC1=O,-1,0.17
O=C(c1onc2c1CCCC2)N1CCn2c(Cc3ccccc3F)nnc2C1,2,-0.25
Cc1ccc2cc(CN(CC3CC3)C(C)C)c(=O)[nH]c2c1,-16,3.17
CC(C)(C)OC(=O)NCc1cnn(C2CCCC2)c1,-5,0.93
COc1cccc(CNC(=O)c2c(C)noc2-c2cccc(F)c2)c1,-12,1.88
CC(C)(C)OC(=O)NC[C@@H](C(=O)O)c1ccccc1,18,-2.06
CCOc1ccc(C2=Nc3ncnn3/C2=N/Cc2ccc(C)cc2)cc1,-4,0.75
CC(C)Oc1ccc(C(=O)N(CN2CCCC2=O)c2ccc(F)cc2)cc1,-6,1.01
COCCN(CCN(C)C)C(=O)CNc1cc(Cl)ccc1OC,-14,1.98
CCOCCNC(=NC)N(C)Cc1ccc(OC)c(F)c1,-3,0.24
CCc1c(C(=O)N(C)Cc2cscn2)cnn1C(C)(C)C,8,-1.53
COc1ccc(CC(=O)N2CC[C@@]3(CCCN(CC4CCC4)C3=O)C2)cc1,-4,0.49
O=C(CC1CCCCC1)NC1(c2ncon2)CCOCC1,-1,0.12
CC(C)(C)c1ccc(OCc2n[nH]c([C@H]3CCCN3)n2)cc1,-13,1.85
C[C@H](N(C)C(=O)CCc1ccco1)C(C)(C)C,-9,1.37
CCC(=O)N1CCCC[C@H]1c1nnc2n1CCN(C(=O)c1ocnc1C)C2,-3,0.42
Cc1cc(C(=O)N(CCN2CCOCC2)C2CCOCC2)cc(C)n1,-9,1.45
COc1cccc(CN2CC(N(C3CCOCC3)S(C)(=O)=O)C2)c1,-16,2.95
O=C1C[C@@H](c2ccccc2)N(C(=O)CC2CCCC2)CCCCCN1,-5,0.69
CN(C)Cc1nc(C(=O)N[C@H]2COCC[C@@H]2Oc2ccccn2)cs1,0,0.05
CC1CCC(C(N)=O)C(C)N1C(=O)[C@H]1CCCO1 (stereo not given in full),4,-0.59

SMILES,% Inhibition [%],Z score
O=C(NCCc1ccncc1)C1CN(C(=O)COc2ccccc2F)C1,-9,1.36
Cc1ccc(NC2CCN(C(=O)CCc3cncc(F)c3)CC2)cc1,-9,1.07
Cn1c(Cn2cccn2)nnc1[C@H]1C[C@@H](Nc2cccc(C#N)n2)C1,-7,1.21
COC[C@H]1CCCN1C(=O)C[C@@H]1O[C@H](CNC(=O)Nc2ccccc2)[C@@H](O)[C@H]1O,36,-4.13
CC1(C)CN(C(=O)Nc2cc(-c3ccccc3)on2)CC[S@@+]1[O-],-3,0.25
NC(=O)c1cc(CN[C@H]2CCCc3cccnc32)n2c1CCCC2,-4,0.46
Cc1cc2n(n1)CCC(=O)N2CC(=O)NCc1ccc(C)o1,-12,1.2
Cc1cccc(Oc2ccc(NC(=O)N3CC[C@H](O)C3)cn2)c1C,6,-0.7
CCN1C[C@@H](CN(C)c2nccnc2C#N)CC1=O,2,-0.23
COc1ccc(OC)c(CNC(=O)[C@H]2CCCN(c3cnc4nccnc4c3)C2)c1,-4,0.67
CCN(CC)c1nnc(-c2cccc(C#N)c2)[nH]1,-14,2.51
CCNC(=O)N1CCN(c2nc(C3CC3)nc(C)c2Cc2ccc(C)cc2)CC1,-13,1.19
OC[C@H]1CCCCN1Cc1ccc2c(c1)CN(Cc1cccn1-c1ccc(Cl)cn1)CCO2,11,-1.42
O=S(=O)(NCc1ccco1)C1CCOC(C(F)(F)F)C1 (stereo not given),-16,2.09
CC(C)(C(=O)Cn1ncsc1=O)c1ccccc1,-8,0.73
O=S(=O)(CCc1cccc(F)c1)N1CCC[C@H]1c1ncccn1,-1,0.19
Cn1nccc1-c1ccc(-c2cnn(-c3nnn[nH]3)c2)cc1,3,-0.47
COc1ccc(CN2CC[C@H](NC(=O)CCc3c(C)noc3C)C2)cn1,-10,1.27
Cc1ccccc1CCCNC(C)(C)C(=O)N(C)C,-2,0.33

# — ChEMBL document CHEMBL4888484, “Replenishing the malaria drug discovery pipeline: Screening and hit evaluation of the MMV Hit Generation Library 1 (HGL1) against asexual blood stage Plasmodium falciparum ,using a nano luciferase reporter read-out” (2022)
